Reference: the supplement of paper PMC11417369
± gives the standard deviation of the averaged measurements. Some of the results follow.

tested on: PfAP2-EXP AP2 domain (GST-tagged); experiment: gcPBM binding intensity (ln(normalized median fluorescence intensity)); higher = stronger DNA binding
Outline: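 GST-tagged P. falciparum DNA-binding domains produced in E. coli were incubated for 1 h on an Agilent 4 × 180k array of primer-extended double-stranded 36-bp intergenic genomic probes with negative controls. Binding intensity is the highest Masliner-normalised natural-log median intensity across replicate spots of either probe orientation, with bound protein detected by Alexa488 anti-GST antibody at 488 nm.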

Sequence	gcPBM binding intensity (ln)
ATGTTGTACAGACACACACACAAAAAAAAAATAAAA [CACACA_site7184]	8.62 ± 0.54
TATAAATTTTGTTTAGCACACACACCGACATACATA [CACACA_site9033]	8.83 ± 0.47
CTTACATATTACATATGTACATATACACCTTATGTC [XGTACX_site4679]	8.69 ± 0.37
TATAATAGCTTCTTTACACACACCATTTTTTTTTTT [CACACA_site1456]	8.59 ± 0.26
ATATATTTTTAATTTGCATGTAGTAAAGCCTTAAAT [TGCATGCA_site593]	8.88 ± 0.25
CATCAAGTGAATTGTTGTACTTTACATTGTTTTTAT [XGTACX_site7261]	9.09 ± 0.59
TTTAATTTTTATATAACACACATATTGGAATTATGT [CACACA_site734]	8.37 ± 0.38
TTATGTATTACCTGCCGTACTTCTAAAATAATTAAA [XGTACX_site1716]	8.81 ± 0.38
TTTTTTACATACAGAAATATATAATATAAAATAAAT [GTGCAC_negctrl_site278]	8.28 ± 0.52
TTAAATGTGAAGTGAATACACACCTAATAAATATAA [CACACA_site3194]	8.33 ± 0.38
ATATATTTACTTAATACACACAAAAAAAAAAAAAAA [CACACA_site3657]	8.21 ± 0.52
GAATCCTTAATATGAACACACAAATATATTACCCAT [CACACA_site186]	8.63 ± 0.48
TTTTGTTATTTTTCAGTGCAATATGATAATAATATA	8.71 ± 0.23
AGAATTTTATTATATTGTACTTTTTATAAACCTTGT [XGTACX_site7495]	8.52 ± 0.4
TCTTTTTAACAAAAAAAAAAAAAAAAAAAAAAATTA [CACACA_negctrl_site1637]	7.84 ± 0.33
TACATTTATACTACTGCATTCAAAAAAAATAAAAAA [TGCATGCA_negctrl_site157]	8.31 ± 0.3
TGCTTATTTAGAATTGTGCACAGCGAATATTCTGTT	8.85 ± 0.3
TTTTTTTTTTCAAATACATGCATTTATGTATAATAC [TGCATGCA_site722]	9.07 ± 0.31
TAGGAAAAAAATACAGTGCAATTTTTATATAAATAA [GTGCAC_site9979]	8.55 ± 0.43
TTTATATAAATCAAATGTACATATTCCAAATATATA [XGTACX_site8515]	8.38 ± 0.39
TACATATTTTATAACTGTACTTTTTTATTATCCAAT [XGTACX_site5396]	8.69 ± 0.35
TTTTTTTTTTTTTTGTGTACTAATATTATAAATTTT [XGTACX_site4405]	8.29 ± 0.13

Sequence	gcPBM binding intensity (ln)
AGAAAAGATAAAAATAGTACATATATATTTACTTAT [XGTACX_site7820]	8.38 ± 0.38
TATATTATTTTTAGAAGTACTTATTGTTATAATTCT [XGTACX_site1015]	8.42 ± 0.37
CTCCTTTCAAAAAAATGTACATGTTTACATTTCAAG [XGTACX_site7342]	8.72 ± 0.4
ATAAATATTTATAACAGTACATATTTACTATCCTAA [XGTACX_site4497]	8.29 ± 0.29
TTATATATAATATGACGTACAATTATACATTTTATG [XGTACX_site7598]	8.51 ± 0.28
TATACACATATTTTTACACACATATTTTTTCATATA [CACACA_site7244]	8.7 ± 0.38
ACGATTAAATCGATAATACACACTAAATGTAAAACA [CACACA_site119]	8.63 ± 0.49
ATTTATTTGAAGAATTGTACTAAATTATATAGCGGT [XGTACX_site4998]	8.76 ± 0.39
TATAAAAAAATATATATATATATTATATGTGTAGAA [TGCATGCA_negctrl_site391]	8.63 ± 0.42
ATTTTAATTTGTTATACACACACAAAAAAAATTATA [CACACA_site9306]	8.38 ± 0.45
TATATCAAAATACATACACACATTTGTATTTACATT [CACACA_site5485]	8.39 ± 0.35
TTTTTTTTTAATCATGCACACTGTTAAAAGAATAAA [CACACA_site4817]	8.46 ± 0.28
TATATATGGGTACTAATTCCTTTAATTTCTTTAATT [CACACA_negctrl_site949]	8.4 ± 0.35
TAGTAAAAGATATACACACACCAAAAAATATAATTA [CACACA_site7142]	8.65 ± 0.52
AATTATATTCAAAATGGTACACACAATATTTAATTG [XGTACX_site5521]	8.46 ± 0.4
AAAAAAAAATTAGGGGTGCCATTTGCTGCTGTGCTT [GTGCAC_site9913]	8.39 ± 0.49
TTTTGTATTTCTCACACACACATAAGTAAACAATAA [CACACA_site5105]	8.7 ± 0.43
ATTAATATGAATAAAACACACATATATAACTTGTAA [CACACA_site6989]	8.43 ± 0.37
AAAAATTTGGCATACACACACACACGCACACGCACA [CACACA_site6422]	8.66 ± 0.52
AATTATACTCACGTTACACACACACTATAAATATAT [CACACA_site7863]	8.85 ± 0.42
CCTATAAAACCATATACACACATATAAATAAAAAAA [CACACA_site7809]	8.63 ± 0.45
TAAACTATATTTACATGTACATATAATATTAAATAA [XGTACX_site3528]	8.45 ± 0.31

Sequence	gcPBM binding intensity (ln)
TGATAATAAGCATACACACACACACCCAAAAAAAAA [CACACA_site721]	8.67 ± 0.48
TATTACATTATTCAAAAAAATTTATATGGTTATAGG [CACACA_negctrl_site1657]	8.13 ± 0.42
ATATATATATATATATATATATATATGATTATTACT [GTGCAC_negctrl_site109]	10.2 ± 0.56
TTTTTTTTTTCTTTTTTTCTCATGAAATTCTAAATG [CACACA_negctrl_site918]	8.31 ± 0.4
AACTAAATGTTATTCGCACACGGAATTTATTTAATG [CACACA_site3664]	8.37 ± 0.35
AAATAAAAAAAAAAAAAAAATAACTTAAATGGGATA [TGCATGCA_negctrl_site595]	8.15 ± 0.63
TTTTATTATTTGTCTTGTACTCATTGTAAGAGTATG [XGTACX_site1538]	8.66 ± 0.49
ATTAAATACATTAACACACACACAAATAAATACATA [CACACA_site5583]	8.8 ± 0.56
TACATACATACATACACACACACATCTATATTTATA [CACACA_site6171]	9.205 ± 0.007
GACAGATTATAGCATAGTACTCATACATACATACAT [XGTACX_site1252]	9.27 ± 0.099
TTTCAAAAATTATTTTGTACATATAATTAATATACG [XGTACX_site512]	8.34 ± 0.43
AATTTCTTCCATTGTAGTACTCAATTTTTTTTTGTT [XGTACX_site5847]	9.04 ± 0.56
CACATATACAAAAAGAAATGTTTAGTTGAAAATTAA [CACACA_negctrl_site1407]	8.25 ± 0.42
GTGTAATATTATATATATATATATAATATATATACA [CACACA_negctrl_site263]	8.32 ± 0.27
AAAAAAAAAAAAATGGTGCAACTTTGTTAAAGGAAA [GTGCAC_site9950]	8.875 ± 0.064
ATTTAAAAGTTGGTAGTGCATTAAAAATAACAAAAA [GTGCAC_site9835]	9.19 ± 0.17
ATATATATATATGCATGTACATATATTTGTTATATC [XGTACX_site3197]	9.82 ± 0.45
TTCCCTTATTTTGTATGTACACAATTTATCATGTTG [XGTACX_site2896]	9.07 ± 0.35
AAACAAAGGGAACATGTGCACTTACAAAAAAAAAGA	9.14 ± 0.37
AATAGATATATAAATACACACAAACATACCTATATA [CACACA_site7823]	8.79 ± 0.41
TCACACCTTTTTGGTTGTACTTAAATTTCTTTTTTT [XGTACX_site6438]	8.41 ± 0.35
ATTTATTTTAATTTTTTTTTTTCTCTTTTGGATCTA [CACACA_negctrl_site1408]	8.22 ± 0.41

Sequence	gcPBM binding intensity (ln)
AATGAATTTAATTCTACTATTTTTTTTTTAAATATT [XGTACX_negctrl_site296]	8.06 ± 0.33
ATTAGGCATATTTTCTGTACACAATAATAAAAAAAA [XGTACX_site3957]	8.63 ± 0.18
TGTAATATGAAATGTGTACACACGCACCCACAAAAA [CACACA_site8948]	9.11 ± 0.23
TTCTCAAAGTTTACGTGTACATAAATTATATAAATG [XGTACX_site2622]	8.69 ± 0.16
AATTATACATATATTTAACACACATTTTATAAAGTG [CACACA_site8362]	8.32 ± 0.27
ATATATATATATAATTGTACATGTGTGTATAATTTG [XGTACX_site2417]	9.8 ± 0.48
TTTTATTTTATATAACAACAAAATGGAAATATATAT [GTGCAC_negctrl_site71]	8.62 ± 0.41
TAAATGAAAATAAATTAACACACAATTTTAATATTG [CACACA_site8360]	8.12 ± 0.46
ATATTATGAAGGGATATTTTCAAAAATATTAGGAGA [CACACA_negctrl_site942]	8.64 ± 0.41
GTCAATATTTAGATATGTACTAAGGAGTGCTATATA [XGTACX_site222]	8.625 ± 0.064
CAATTTTTATGTGTGTGTACTCATTTGTTTTATAAA [XGTACX_site406]	8.74 ± 0.32
ATACAACAGATATATACACACATATAACAATAATAA [CACACA_site7560]	8.66 ± 0.42
TTGGAATAATATAAATAAATAAATATATATATATAT [CACACA_negctrl_site900]	9.9 ± 0.35
TTTCTTTTTGTTCGTGTACACACATGAAATTTATAA [CACACA_site8466]	8.99 ± 0.22
AAAAAAAAAAAATGTGCACACGCGTACACCCAAAAA [CACACA_site8614]	8.6 ± 0.3
ATTGATACATCCAATACACACTACAGATAATGATGT [CACACA_site5098]	8.42 ± 0.44
GTAATAAATTAAATATGTACATATTAAAATTAAGGA [XGTACX_site2290]	8.63 ± 0.27
TGCTACATAATATGTACACACATATACATATTTATA [CACACA_site6545]	8.46 ± 0.27
TATCACATTTATGAGAGTACATAATTAATTCATGAT [XGTACX_site7850]	8.29 ± 0.3
GTATGATTAAATAAAGGTACACTTATATTTATTTAT [XGTACX_site6966]	8.44 ± 0.27
TTCTTTTTTGTAATAACACACACACTAACAGAAAAA [CACACA_site8646]	8.8 ± 0.49
CATAATACAAATGTGATACCTGAAAATGACTTATTA [CACACA_negctrl_site994]	8.53 ± 0.24
